The other results are listed elsewhere or left out.
T1: UNK ZnF1-6 (called full-length) (human, UniProt Q9C0B0 30-357)
T1 sequence: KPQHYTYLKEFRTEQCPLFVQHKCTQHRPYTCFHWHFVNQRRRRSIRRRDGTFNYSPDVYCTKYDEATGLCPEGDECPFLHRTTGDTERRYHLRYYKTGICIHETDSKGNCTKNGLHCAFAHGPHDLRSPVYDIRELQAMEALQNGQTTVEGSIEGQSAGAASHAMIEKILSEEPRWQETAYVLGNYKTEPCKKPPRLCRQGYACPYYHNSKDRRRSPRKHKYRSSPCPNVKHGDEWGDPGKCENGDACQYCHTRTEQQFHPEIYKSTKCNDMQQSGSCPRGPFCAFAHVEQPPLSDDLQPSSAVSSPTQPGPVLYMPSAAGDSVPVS

B1: chr17:58089516:58089557:+|3pUTR|ENSG00000264364|msi1_unk|total|mutant (ssRNA)
RNA: GGGAGUUCUACAGUCCGACGAUCGAAGGCUGCUUUAUGUUUAUUUUUCAAGACUUUAAAAAUAUUUUUUGGUUGUAUUGCACCCGGAAAUCUCUCCCACCUCUCCCUUUUCUCUUUCUUUCCCUAUACAAAAUAAAAGGCCCACAACAGAGGAUUGAGCAUCA
B2: chr7:50445662:50445763:-|CDS|ENSG00000132436|msi1|FALSE|unique (ssRNA)
RNA: GGGAGUUCUACAGUCCGACGAUCGUUAUCUCAACGGGGAGAUGGUGAGCAUGAAUCUUCUAGAAGGAUAAAAACAGAAUUUUUAGUUCAAUUAGAUGGAGCAACAACAUCUUCUGAAGAUCGUAUCCUAGUGGUGGGAGCAACCAACAGAGGAUUGAGCAUCA
B3: ENSG00000107863:be:win_4101|CDS|ENSG00000107863|bound_else_gene|NA|bound_elsewhere_windowed (ssRNA)
RNA: GGGAGUUCUACAGUCCGACGAUCUUUACUCACCAACAUUGGAAGGACAGGAGUCUCCCCAGGAGAUGUAUCAGAUUCAGCUACUAGUGACUCAACAAAAUCUAAGGGUUCUUGGGGAUCUGGAAAGGAUCAGUAUAGCAGGGACAACAGAGGAUUGAGCAUCA
B4: chr10:84150713:84150851:+|CDS|ENSG00000165678|unk|total|mutant (ssRNA)
RNA: GGGAGUUCUACAGUCCGACGAUCUCUUCCACCUACCACCGUGGCUGGUGCCACUCUUUACUCAGUGGCAAUGUACGGUGGAUCCGUUCUUUUCAGCAUGUUCCUUCUGUAUGAUACCCAGAAAGUAAUCAAGCGUGCAGAAGUCAACAGAGGAUUGAGCAUCA
B5: chr11:75587191:75587292:-|CDS|ENSG00000171533|unk|total|mutant (ssRNA)
RNA: GGGAGUUCUACAGUCCGACGAUCACAGCCUCCAAAGAAUCAAGGUCGUACCGUCCCUGAACCUCUGAAGAAUCAAGUUCCUACCGUCCCAGUGCCUCUGAAGGAUCAAGAUCCUCUGGUGCCAGUACCAGCAAAGGACCAAGGCAACAGAGGAUUGAGCAUCA
B6: chr8:103229222:103229323:+|3pUTR|ENSG00000164929|unk|total|mutant (ssRNA)
RNA: GGGAGUUCUACAGUCCGACGAUCUAAUUUUCCCGUAUGUCUUGAAACAUGUUCAUCUGGAAGUAUUUUCCUCCAAAGUAAUGCCGCAUGAUUUUUCAAGGAUUGUUAACAUGCCUGGGAUUGGGAAAGACCGGACUAAAGUUGCAACAGAGGAUUGAGCAUCA
B7: chr9:125236489:125236593:-|3pUTR|ENSG00000044574|msi1_unk|FALSE|overlapping (ssRNA)
RNA: GGGAGUUCUACAGUCCGACGAUCUGUAGACACUGAUCUGCUAGUGCUGUAAUAUUGUAAAUACUGGACUCAGGAACUUUUGUUAGGAAAAAAUUGAAAGAACUUAAGUCUCGAAUGUAAUUGGAAUCUUCACCUCAGAGUGGACAACAGAGGAUUGAGCAUCA
B8: chr8:22006364:22006465:+|3pUTR|ENSG00000130227|msi1|FALSE|unique (ssRNA)
RNA: GGGAGUUCUACAGUCCGACGAUCUGUUGCUGCUAGUUGUACACAUCUCUAGUUCAGCUCUUGCCCACGGGACACUCAUCAAUUAGGUUUUAUUUUUAUUUCUUUCCUCUACCCCCAGAAACAAGCCUGUUAAUUUUUUUUCCUCAACAGAGGAUUGAGCAUCA
B9: ENSG00000198589:be:win_2651|CDS|ENSG00000198589|bound_else_gene|NA|bound_elsewhere_windowed (ssRNA)
RNA: GGGAGUUCUACAGUCCGACGAUCAAAAGAUAACAGAAAUGGUAUACGCCAUAUUCAGAAUCCUGCUUUACCAUGCAGUCAAAUAUGAGUGGGGUGGCUGGCGUGUAUGGGUAGACACUUUAUCAAUCACUCAUUCAAAGGUCACAACAGAGGAUUGAGCAUCA
B10: chr1:45660322:45660423:-|5pUTR|ENSG00000159592|unk|FALSE|unique (ssRNA)
RNA: GGGAGUUCUACAGUCCGACGAUCUCCCCUUCCCCCCUUCCCCUUUUCCCCUUUCCCCUUUUGGAAACGUGUCAGGAACCAAAUAGUUUAAGAUGAGCAGUUGAGGGGACUGAGAGAGUGAUCGACACAGAACCUGGCUUCUUCCAACAGAGGAUUGAGCAUCA
B11: chr13:106491723:106491923:-|3pUTR|ENSG00000125266|msi1|total|mutant (ssRNA)
RNA: GGGAGUUCUACAGUCCGACGAUCCAGACUCAGCUGCUAUACUUAUCACAUUUUAUUAAACACAGGGAAAGCAUUCCGGAGAACCGCAGAGAGCCAAAUCUGACCUAAAAGUUGAAAAGCCAAAGGUCAAACAGGCUGUAAUUCCAACAGAGGAUUGAGCAUCA
B12: chr10:51697484:51697585:-|3pUTR|ENSG00000177613|unk|total|mutant (ssRNA)
RNA: GGGAGUUCUACAGUCCGACGAUCAAUGGGUGCAAAAAGCUGACUUCUGUAUCCCCACACUUGGAUCCGGGUUUCCCUCCUCCCCGAACCUAAUCUUAUUUUUUGUUCUUUUUCUUUCUUUCUGUUUUCCUUUUUUUUUUAAUUCAACAGAGGAUUGAGCAUCA
B13: chr19:42935403:42935769:-|CDS|ENSG00000221878|control|control|control (ssRNA)
RNA: GGGAGUUCUACAGUCCGACGAUCCUACAUCUGGUACAAAGGACAAAUCAGGGACCUCUACCAUUAUGUUACAUCAUAUAUAGUAGACGGUCAAAUAAUUAAAUAUGGGCCUGCAUACAGUGGACGAGAAACAGUAUAUUCCAACAACAGAGGAUUGAGCAUCA
B14: chr21:34788506:34788607:-|3pUTR|ENSG00000159216|msi1|FALSE|unique (ssRNA)
RNA: GGGAGUUCUACAGUCCGACGAUCUUGUUAAUGCCUAUAACUUUUUUUCAAUUUUUUUGUGUGUGUUUCUAAGGACUUUUUCUUAGGUUUGCUAAAUACUGUAGGGAAAAAAAUGCUUCUUUCUACUUUGUUUAUUUUAGACUUCAACAGAGGAUUGAGCAUCA

molecular target: T1, UNK ZnF1-6 (called full-length); assay: nsRBNS (natural sequence RNA bind-n-seq); RBNS binding buffer (assumed for nsRBNS): 25 mM Tris pH 7.5, 150 mM KCl, 3 mM MgCl2, 0.01% Triton X-100, 500 ug/ml BSA, 20 U/ml SUPERase-In, 4 C; UNK is unkempt and MSI1 is Musashi-1; names of the RNAs are library labels; protein concentration not given here; high values mean tight binding

Binder | binding signal
B1 | 4.03 enrichment R
B2 | 0.853 enrichment R
B3 | 0.854 enrichment R
B4 | 0.53 enrichment R
B5 | 0.477 enrichment R
B6 | 0.36 enrichment R
B7 | 5.52 enrichment R
B8 | 41.4 enrichment R
B9 | 0.84 enrichment R
B10 | 0.765 enrichment R
B11 | 1.05 enrichment R
B12 | 6.4 enrichment R
B13 | 0.629 enrichment R
B14 | 2.15 enrichment R

Source: paper PMC12136788
